Source: PMC4336329 (PLoS ONE, 2015)
Out of some 310,000 compounds screened, about 2,200 (0.71%) showed an effect of 50% or more. The effect is printed as a negative number. Some of the results follow.

The molecules below were run against human ether-à-go-go-related gene (hERG) potassium channel (human, UniProt Q12809) (assay: primary screen, population patch clamp on CHO cells stably expressing hERG).
Sequence of human ether-à-go-go-related gene (hERG) potassium channel (Q12809 whole entry, looked up): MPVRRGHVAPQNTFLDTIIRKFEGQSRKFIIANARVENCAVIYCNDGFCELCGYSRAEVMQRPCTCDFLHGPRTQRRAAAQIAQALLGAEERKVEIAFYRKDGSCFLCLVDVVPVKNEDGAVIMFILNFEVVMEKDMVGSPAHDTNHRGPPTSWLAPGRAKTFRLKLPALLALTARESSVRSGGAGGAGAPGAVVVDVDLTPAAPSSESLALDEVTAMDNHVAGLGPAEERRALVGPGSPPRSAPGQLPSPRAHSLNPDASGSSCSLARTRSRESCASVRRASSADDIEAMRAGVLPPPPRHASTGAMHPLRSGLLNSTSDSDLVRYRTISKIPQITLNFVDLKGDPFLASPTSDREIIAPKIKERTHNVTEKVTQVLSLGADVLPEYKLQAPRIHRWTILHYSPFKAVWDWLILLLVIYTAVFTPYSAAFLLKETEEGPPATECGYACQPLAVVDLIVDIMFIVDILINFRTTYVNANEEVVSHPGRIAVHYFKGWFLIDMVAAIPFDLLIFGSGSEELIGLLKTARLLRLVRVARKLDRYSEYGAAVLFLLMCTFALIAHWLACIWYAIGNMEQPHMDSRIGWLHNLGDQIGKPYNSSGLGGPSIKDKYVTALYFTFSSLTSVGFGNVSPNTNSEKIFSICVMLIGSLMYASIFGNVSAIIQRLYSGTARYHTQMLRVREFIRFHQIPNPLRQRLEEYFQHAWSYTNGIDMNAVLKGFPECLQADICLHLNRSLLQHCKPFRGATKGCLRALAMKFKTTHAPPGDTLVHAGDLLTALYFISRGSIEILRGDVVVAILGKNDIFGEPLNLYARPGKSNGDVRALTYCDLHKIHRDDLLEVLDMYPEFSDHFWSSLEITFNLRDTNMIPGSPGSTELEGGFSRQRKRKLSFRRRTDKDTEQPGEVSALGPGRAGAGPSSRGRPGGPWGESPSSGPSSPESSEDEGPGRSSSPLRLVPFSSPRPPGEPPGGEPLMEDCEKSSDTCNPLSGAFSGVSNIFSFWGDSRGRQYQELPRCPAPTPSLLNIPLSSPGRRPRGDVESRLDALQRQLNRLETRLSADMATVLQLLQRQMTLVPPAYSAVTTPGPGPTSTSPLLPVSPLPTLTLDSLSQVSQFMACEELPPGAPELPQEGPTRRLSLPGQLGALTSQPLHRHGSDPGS

SMILES	hERG current change (%, negative = inhibition) at 1uM [%]
O=C(O)CCCCCn1c(O)c(C=C2N=c3ccccc3=N2)sc1=S	10.5
Cc1ccc(Oc2cc([N+](=O)[O-])cc3c2C(=O)Nc2ccccc2O3)cc1	8.68
O=C(CN1CCOc2ccccc21)N1CCCC1	9.56
CC(=O)Nc1ccc(S(=O)(=O)NC(C)(C#N)C2CC2)cc1 (centres unmarked)	12.5
COc1cccc(CNC(=O)C(=O)NCC2CCCN2S(=O)(=O)c2cc(C)ccc2C)c1 (centres unmarked)	-3.27
CCOc1ccc(NC(=O)c2ccc(N3CC4CC(C3)c3cccc(=O)n3C4)c(NC(=O)c3ccncc3)c2)cc1 (centres unmarked)	18.5
O=C(NCc1cccs1)c1cnc2sccn2c1=O	-2.69
COc1ccc(C(CNC(=O)c2ccc3c(c2)CCC3)N(C)C)cc1 (centres unmarked)	4.94
CCCCNC(=O)CN1CCN(Cc2ccc3cc(OC)ccc3c2)CC1.O=C(O)C(=O)O	-26.3
CC1CCN(C(=O)CSc2ccc(-c3ccccc3)nn2)CC1	-14.1
Cc1ccc(NC(=O)CN(C)CC(=O)Nc2ccc(N3CCOCC3)cc2)cc1F.O=C(O)C(=O)O	-5.19
Cc1ccc(NC(=O)CSc2nnc(Cn3cnc4ccccc43)o2)c(C)c1	20.5
Cc1cc(C(=O)NCc2ccc(S(N)(=O)=O)cc2)cs1	-6.92
CCOC(=O)c1c(NC(=O)COC(=O)C2CC2C)sc(C)c1C (centres unmarked)	12.4
C=CCc1cccc(/C=N/NC(=O)C(C)Nc2ccc(C)cc2)c1O (centres unmarked)	14.3
COc1ccc(Cl)cc1NC(=O)COC(=O)CCCC1=NS(=O)(=O)c2ccccc2N1	11.6
O=C1/C(=C\c2cccnc2)CCc2ccccc21	-2.68
CCN(CC(=O)NCc1ccc(F)cc1)C(=O)CN1CCN(c2ccc(OC)cc2)CC1.O=C(O)C(=O)O	-21.1
Cc1cc(C)n(/C(=C/N(C)C)C(=O)c2ccccc2)n1	4.36
Cc1ccc(-c2nc3cnccn3c2Nc2c(C)cccc2C)o1	1.94
Cc1ccc(C)c(COC(=O)CCN=C2NS(=O)(=O)c3ccccc32)c1	14.1
O=C(COC(=O)/C=C/c1cccc(Cl)c1)Nc1ccccc1-c1ccccc1	10.5

SMILES	hERG current change (%, negative = inhibition) at 1uM [%]
Cc1ccc2[nH]c(=O)c(CN(Cc3ccccc3)C(=S)NCCCN(C)C)cc2c1	4.21
CC(C)(C)OC(=O)NCCCC1=CC2=CC(=O)C(C)(OC(=O)c3ccco3)C(=O)C2=CO1 (centres unmarked)	-3.19
COCCSc1nnc(NC(=O)c2ccco2)s1	18.5
Cc1ccc(S(=O)(=O)N(C)c2ccc(OCC(=O)OCC(=O)N(CC#N)c3ccccc3)cc2)cc1	-2.38
COc1ccc(CCn2nnnc2C(c2ccccc2)N2CCN(C)CC2)cc1OC.Cl (centres unmarked)	10.8
O=C(NCCCNCCCNC(=O)c1ccccn1)c1ccccn1	-10
Cc1cc(/C=C(\C#N)C(N)=O)c(C)n1-c1ccc(N2CCOCC2)c([N+](=O)[O-])c1	1.75
COCCCN(C(=S)Nc1c(C)cc(C)cc1C)C(C)c1ccncc1 (centres unmarked)	7.15
COC(=O)c1[nH]c2cc(OC)ccc2c1NC(=O)CCN1CCN(c2cccc(C)c2C)CC1	2.69
Cc1ccc(S(=O)(=O)N2CCCCC2)cc1C(=O)OCC(=O)NC(=O)NC12CC3CC(CC(C3)C1)C2	16.6
Cc1cc(Br)ccc1NC(=O)c1sc2ncn(CC(=O)N3CCN(c4ccccn4)CC3)c(=O)c2c1C	12.3
Cc1cc(OCC(=O)NCc2cccnc2)c2c3c(c(=O)oc2c1)CCCC3	-22.9
COc1ccc(C)cc1NC(=O)c1ccc(-c2ccc(C(C)=O)cc2)o1	8.64
O=C(Cc1c(Cl)cccc1Cl)OCc1ccccn1	2.17
Cc1ccc(C(=O)NCC2CCCO2)cc1S(=O)(=O)N1CCCCC1 (centres unmarked)	-0.59
COc1ccc(S(=O)(=O)Nc2cc(SCC(=O)O)c(O)c3ccccc23)cc1	14.4
CN(C)c1ccc(P(=O)(OCc2ccccc2)C(O)c2ccncc2)cc1 (centres unmarked)	-5.59
O=c1c2c([nH]c3ccccc13)CCC2	14
COc1ccc(C(=O)NCCn2cc(SCC(=O)Nc3cc(C)on3)c3ccccc32)cc1OC	9.13
COc1cccc(C2(O)CCN(CC(=O)NCC3CC3)CC2)c1	2.99
O=c1c(=O)n2c(nn1Cc1ccc(F)cc1)sc1ccccc12	9.13
COc1cccc(OC)c1OCCCNC1CCCC1.O=C(O)C(=O)O	2.94

SMILES	hERG current change (%, negative = inhibition) at 1uM [%]
O=C(CC(c1ccco1)S(=O)(=O)c1ccccc1)c1ccc(F)cc1 (centres unmarked)	1.73
CCc1[nH]c(C(=O)O)c(C)c1C(=O)OC	10.4
O=C(CSc1nc2ccc(Cl)cc2[nH]1)Nc1ccc2[nH]c(=O)[nH]c2c1	14.6
CCOc1ncccc1C(=O)NC(C)CCc1ccccc1 (centres unmarked)	10.1
O=C(COc1ccc([N+](=O)[O-])cc1)NCc1ccccc1	7.63
CCCCC(=O)NC1(C(F)(F)F)C(=O)Nc2c1c(=O)n(C)c(=O)n2C (centres unmarked)	7.12
NC(=O)CC(NC(=O)Cc1ccc(Br)cc1)c1ccc(NCC2CC2)c([N+](=O)[O-])c1 (centres unmarked)	3.32
C=CCSc1nc2ccsc2c(=O)n1-c1cccnc1	3.11
O=C1CC(c2cccs2)c2ccc3ccccc3c2N1 (centres unmarked)	13.8
Cc1ccc(N2CCN(C3=NC(=O)/C(=C\c4cccs4)S3)CC2)cc1	-12.5
CC[C@H](C)/C=C(C)/C=C/C1=CC2=C(Cl)C(=O)[C@@](C)(OC(C)=O)C(=O)C2=CO1	16.3
O=C1NCCN(Cc2c(F)cccc2Cl)C1CC(=O)N1CCCCO1 (centres unmarked)	17.2
O=C(c1ccc(NS(=O)(=O)c2ccccc2)cc1)N1CCCCCC1	3.03
COc1ccc(NC(=O)CN(C)C(=O)CN2C(=O)NC3(CCCCC3)C2=O)cc1	12.2
COc1cccc(N2CCN(C(=S)Nc3cccc(C)c3)CC2)c1	7.56
CC1(C)Cc2c(cnn2-c2cccc(F)c2)C(NC(=O)c2cc[n+]([O-])cc2)C1 (centres unmarked)	-4.34
N=C(N)N1CCc2ccccc2C1.O=S(=O)(O)O	6.14
COc1ccc(OC)c(S(=O)(=O)N2CCC3(CC2)CC(=O)c2ccccc2O3)c1	3.18
O=C(CNC(=O)c1ccc(Cl)cc1)OCC(=O)c1ccccc1	-0.984
CC(=O)c1cccc(NC(=O)CN(C)S(=O)(=O)c2ccccc2)c1	3.96
COC(=O)c1ccsc1NC(=O)CN1C(=O)CCC1=O	12.5
O=C(O)CC(C(=O)Nc1ccc(Cl)cc1Cl)C1CCCO1 (centres unmarked)	3.96

SMILES	hERG current change (%, negative = inhibition) at 1uM [%]
C/C=C/c1ccc(OCCOc2ccc(C=O)cc2OC)c(OC)c1	12
Cc1ccc(-n2nnnc2SC(C(=O)c2c[nH]c3ccccc23)c2ccccc2)cc1 (centres unmarked)	12.2
CSc1ccc(CN(C)C(=O)CNC(=O)CNS(=O)(=O)c2ccc(C)c(C)c2)cc1	9.66
Cc1ccccc1Nc1cccc2nonc12	12.9
Cc1cc(CN(C)C(=O)c2ccc3nc(Cc4ccccc4F)oc3c2)on1	11.5
Cc1c(NC(=O)CN2C(=O)c3ccc([N+](=O)[O-])cc3C2=O)c(=O)n(-c2ccccc2)n1C	5.36
N#C/C(=C/c1ccc(Br)o1)C(N)=O	9.96
OC1(c2cccs2)CN(c2ccc(Cl)cc2)C2=[N+]1CCCS2.[Br-] (centres unmarked)	-16.2
COc1ccc(-n2nnc3c(SCC(=O)Nc4ccc5c(c4)OCCO5)ncnc32)cc1	2.74
COc1ccc(-c2nnc(SCC(=O)O)n2C)cc1OC	14.3
CCOc1ccc(C(=O)CC(NCc2cccs2)C(=O)O)cc1 (centres unmarked)	2.29
Nc1c(C(=O)Nc2ccc3c(c2)OCCO3)nnn1Cc1cccc(Cl)c1	0.624
CCC(CC)C(=O)Nc1cccc(C(=O)NCCc2ccc(S(N)(=O)=O)cc2)c1	12.7
O=C(COc1c(F)c(F)cc(F)c1F)NC(=O)NC1CCCC1	3.34
O=C(COC(=O)CNC(=O)c1ccccc1)Nc1nnc(-c2ccccc2)o1	-2.84
CCOC(=O)Cc1nnc2c(Nc3ccc(C)cc3)nc3nonc3n12	12.9
O=C(COC(=O)COc1ccccc1)Nc1ccc(Cl)cn1	13.1
O=C(c1cccc(-n2cccc2)c1)N1CCN(S(=O)(=O)c2ccc(F)cc2)CC1	8.64
CCC(C(=O)O)N1C(=O)/C(=C/c2cccn2C)SC1=S (centres unmarked)	15.2
Cc1cccc2cc(C#N)c(SCC(=O)NNC(=O)Cc3ccccc3)nc12	-6.63
